This is an account of results in publication PMC6220056.

Sequences of proteins named here, by UniProt entry; tags and fusion partners are left off.
UniProt Q9UDY8: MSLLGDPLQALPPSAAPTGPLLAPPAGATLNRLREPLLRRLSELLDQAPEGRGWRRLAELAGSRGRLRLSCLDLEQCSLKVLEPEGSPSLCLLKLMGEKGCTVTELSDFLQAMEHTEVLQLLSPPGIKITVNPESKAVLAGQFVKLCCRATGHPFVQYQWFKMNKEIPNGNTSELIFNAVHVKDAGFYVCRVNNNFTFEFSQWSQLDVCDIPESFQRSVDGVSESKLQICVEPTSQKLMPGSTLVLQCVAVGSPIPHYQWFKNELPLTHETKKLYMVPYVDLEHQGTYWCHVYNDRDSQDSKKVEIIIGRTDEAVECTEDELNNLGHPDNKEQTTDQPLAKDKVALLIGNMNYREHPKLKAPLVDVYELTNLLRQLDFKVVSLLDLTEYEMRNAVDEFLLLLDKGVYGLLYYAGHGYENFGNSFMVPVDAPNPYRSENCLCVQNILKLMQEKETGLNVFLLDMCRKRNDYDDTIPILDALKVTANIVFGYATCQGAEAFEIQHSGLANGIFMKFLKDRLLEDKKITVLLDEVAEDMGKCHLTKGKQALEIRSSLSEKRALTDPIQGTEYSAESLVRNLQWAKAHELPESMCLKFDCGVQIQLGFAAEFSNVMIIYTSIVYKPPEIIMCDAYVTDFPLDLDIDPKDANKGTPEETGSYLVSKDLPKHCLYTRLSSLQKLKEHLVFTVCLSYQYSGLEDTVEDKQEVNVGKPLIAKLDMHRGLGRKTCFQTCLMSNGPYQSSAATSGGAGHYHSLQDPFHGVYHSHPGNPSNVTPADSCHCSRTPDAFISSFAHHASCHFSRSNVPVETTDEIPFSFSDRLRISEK

Where a chain is given by its changes, count along the chain named. Results are given in words; binding and its absence hold for the method and conditions named. Binding seen in cells or lysates may run through a third protein. Some binding calls cover weakened binding; strength is not graded here. Where a sequence is shown, tags or fusion partners need not be part of it.

The target of assay [1] is T1, Flag-tagged human CARD9, wild type (human) (UniProt Q9H257).
T1 sequence: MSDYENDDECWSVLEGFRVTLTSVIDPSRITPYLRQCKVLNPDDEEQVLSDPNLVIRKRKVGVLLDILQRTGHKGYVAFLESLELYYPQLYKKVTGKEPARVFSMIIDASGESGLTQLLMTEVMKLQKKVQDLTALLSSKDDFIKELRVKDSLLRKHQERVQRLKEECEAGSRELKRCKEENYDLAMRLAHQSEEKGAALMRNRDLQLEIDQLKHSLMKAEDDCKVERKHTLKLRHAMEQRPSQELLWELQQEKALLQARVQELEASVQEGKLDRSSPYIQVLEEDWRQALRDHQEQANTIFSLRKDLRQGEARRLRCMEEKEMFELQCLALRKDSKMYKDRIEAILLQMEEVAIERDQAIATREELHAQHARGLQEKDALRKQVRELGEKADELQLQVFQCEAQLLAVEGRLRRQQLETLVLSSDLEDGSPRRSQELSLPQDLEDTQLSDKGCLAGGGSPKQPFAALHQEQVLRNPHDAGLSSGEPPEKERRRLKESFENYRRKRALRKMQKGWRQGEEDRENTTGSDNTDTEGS
The assay can be described thus: condition: only without upstream activation (no PMA); co-IP; unstimulated HEK293T co-transfected with MALT1, E-tagged BCL10 and a Flag-tagged CARD9 construct; CARD9 precipitated with anti-Flag antibody and protein G magnetic Dynabeads in IP buffer (25 mM HEPES pH 7.5, 150 mM NaCl, 0.2% NP-40, 10% glycerol); BCL10 detected by anti-E-tag, MALT1 by anti-MALT1.

The target in assay [2] is T1, Flag-tagged human CARD9, wild type (human). The assay can be described thus: co-IP; as the unstimulated co-IP, but transfected HEK293T cells treated with 200 ng/ml PMA for 30 minutes before lysis and anti-Flag immunoprecipitation.
The target in assay [3] is T2, Flag-tagged human CARD9 R70W (human) (UniProt Q9H257).
T2 sequence: T1 sequence with R70W
The assay is described as follows: co-IP; unstimulated HEK293T co-transfected with MALT1, E-tagged BCL10 and a Flag-tagged CARD9 construct; CARD9 precipitated with anti-Flag antibody and protein G magnetic Dynabeads in IP buffer (25 mM HEPES pH 7.5, 150 mM NaCl, 0.2% NP-40, 10% glycerol); BCL10 detected by anti-E-tag, MALT1 by anti-MALT1.

Assay [4] addresses T3, Flag-tagged human CARD9 L213LI (gain-of-function mutant) (human) (UniProt Q9H257).
T3 sequence: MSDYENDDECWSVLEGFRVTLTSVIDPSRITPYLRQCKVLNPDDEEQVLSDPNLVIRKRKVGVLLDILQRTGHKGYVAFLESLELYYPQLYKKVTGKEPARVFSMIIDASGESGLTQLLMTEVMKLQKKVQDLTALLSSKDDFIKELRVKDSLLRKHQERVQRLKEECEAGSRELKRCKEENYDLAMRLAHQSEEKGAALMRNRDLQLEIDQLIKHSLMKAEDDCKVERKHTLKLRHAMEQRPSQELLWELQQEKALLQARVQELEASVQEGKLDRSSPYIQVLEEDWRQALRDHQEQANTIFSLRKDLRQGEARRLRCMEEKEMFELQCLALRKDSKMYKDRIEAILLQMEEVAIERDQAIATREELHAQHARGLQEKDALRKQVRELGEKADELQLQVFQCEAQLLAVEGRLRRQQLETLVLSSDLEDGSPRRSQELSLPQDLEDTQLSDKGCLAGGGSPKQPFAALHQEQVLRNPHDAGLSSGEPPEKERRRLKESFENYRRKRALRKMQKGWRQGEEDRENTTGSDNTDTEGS
The description is as above.

Assay [5] has as its target T4, Flag-tagged human CARD9 R70W/L213LI double mutant (human) (UniProt Q9H257).
T4 sequence: T3 sequence with R70W
The assay is described as above.

Assay [6] deals with T5, Flag-tagged human CARD9, wild type (human), Q9H257.
T5 chain: T1 sequence
The assay is described as follows: co-IP; as the unstimulated co-IP, but transfected HEK293T cells treated with 200 ng/ml PMA for 30 minutes before lysis and anti-Flag immunoprecipitation. The settings on record: remark: other sources report otherwise.

Take human MALT1 (from UniProt Q9UDY8 1-824): the binding result was “no binding” in assay [1]; “binds” in assay [2]; “no binding” in assay [3]; “binds” in assay [4]; “no binding” in assay [5].

B1: E-tagged human BCL10, O95999 1-233 (protein)
chain: MEPTAPSLTEEDLTEVKKDALENLRVYLCEKIIAERHFDHLRAKKILSREDTEEISCRTSSRKRAGKLLDYLQENPKGLDTLVESIRREKTQNFLIQKITDEVLKLRNIKLEHLKGLKCSSCEPFPDGATNNLSRSNSDESNFSEKLRASTVMYHPEGESSTTPFFSTNSSLNLPVLEVGRTENTIFSSTTLPRPGDPGAPPLPPDLQLEEEGTCANSSEMFLPLRSRTVSRQ
Take B1: the binding entry in assay [6] was “binds”.

B2: E-tagged human BCL10 (protein, UniProt O95999 1-233)
chain: B1 chain
For B2, the binding result in assay [1] is “no binding”; in assay [3], “no binding”; in assay [4], “binds”; in assay [5], “no binding”.
